Experimental data taken from the supplement of paper PMC3334620.
The full ranking holds about 33,000 sequences; the median of “E-score (-0.5 to 0.5)” is about -0.041, and the highest 2% start at about 0.37. This is one part of the list.

These sequences were tested against T1, Ecm22 (UniProt Q05958) (assay: PBM E-score (8-mer binding enrichment) (E-score (-0.5 to 0.5)); higher = stronger / more preferred TF binding; most listed sequences are background and not binding sites). Conditions: protein concentration: 200 nM; construct: GST-full length.
T1 sequence: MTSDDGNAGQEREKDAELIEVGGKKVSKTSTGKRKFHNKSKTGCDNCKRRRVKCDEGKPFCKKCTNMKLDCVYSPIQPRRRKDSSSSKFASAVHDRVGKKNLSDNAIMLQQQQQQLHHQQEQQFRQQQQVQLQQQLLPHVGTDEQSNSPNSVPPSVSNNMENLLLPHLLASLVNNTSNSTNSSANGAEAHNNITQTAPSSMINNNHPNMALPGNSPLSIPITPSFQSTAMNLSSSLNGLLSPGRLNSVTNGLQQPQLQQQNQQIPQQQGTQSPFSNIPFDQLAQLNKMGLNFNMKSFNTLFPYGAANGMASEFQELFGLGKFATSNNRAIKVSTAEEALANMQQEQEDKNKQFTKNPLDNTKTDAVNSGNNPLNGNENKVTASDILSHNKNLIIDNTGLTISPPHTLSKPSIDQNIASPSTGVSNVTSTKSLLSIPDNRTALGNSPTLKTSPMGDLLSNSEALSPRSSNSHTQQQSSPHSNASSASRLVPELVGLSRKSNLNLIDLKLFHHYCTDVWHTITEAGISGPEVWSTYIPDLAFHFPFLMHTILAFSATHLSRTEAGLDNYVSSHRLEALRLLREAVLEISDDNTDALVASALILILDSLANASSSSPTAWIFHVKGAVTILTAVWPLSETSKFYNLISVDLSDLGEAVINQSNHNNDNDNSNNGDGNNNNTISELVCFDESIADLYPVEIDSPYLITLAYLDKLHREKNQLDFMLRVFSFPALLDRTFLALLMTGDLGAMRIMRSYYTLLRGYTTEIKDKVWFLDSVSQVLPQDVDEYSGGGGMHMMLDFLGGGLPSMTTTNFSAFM
Method in brief: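 Yeast transcription factors carrying a GST tag, as full-length proteins or DNA-binding domains, were produced by PURExpress in vitro transcription/translation. About 100-200 nM protein was applied to universal all-10-mer Agilent arrays, double-stranded by primer extension on fresh or once-stripped slides. Bound protein was detected with fluorescent anti-GST, and scans were normalised with masliner. The Universal PBM Analysis Suite gave each ungapped eight-base word, pooled with its reverse complement, an E-score, a modified Wilcoxon-Mann-Whitney statistic.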

Row | Sequence | PBM E-score
1 | TAAGGGTA | -0.102
2 | GGCCGGTA | -0.08
3 | ATGCCGGA | 0.0467
4 | CAATAACC | 0.0176
5 | GGGGTCAC | -0.152
6 | CAAGCGGG | -0.0323
7 | AACTACTT | -0.235
8 | AGAAATTA | 0.00273
9 | CAACGAAC | 0.272
10 | AGAGGAGA | -0.18
11 | CTGCCGGC | -0.237
12 | GTGGAACA | 0.0214
13 | CTACCTAC | -0.0219
14 | CACAGGTA | 0.0392
15 | CTAGTTAA | -0.153
16 | CTGCGGAC | -0.0604
17 | ACTGCAGA | -0.149
18 | GGGTCCAC | -0.295
19 | AACTCGGC | 0.127
20 | ACCACAGC | -0.0473
21 | CTGGAAAA | -0.16
22 | TACTAAGA | 0.0366

Row | Sequence | PBM E-score
23 | CGAGTCCG | 0.158
24 | AAGACTGG | -0.117
25 | CGACAGAG | 0.144
26 | CAGGGGTC | -0.119
27 | CCTCGTCG | 0.218
28 | TGGAGCCA | -0.159
29 | AGATAGGC | 0.0141
30 | AGCACGGG | -0.123
31 | CAATAGAG | 0.0477
32 | ACGTGCCG | 0.0127
33 | CATACCTA | -0.235
34 | GGAGCAGA | -0.0547
35 | AGAAGGTC | -0.15
36 | GCCGAGGA | 0.146
37 | GAGGTGGA | -0.234
38 | AGAAGTAT | -0.0129
39 | CGCGTAGA | 0.107
40 | ACCGAAGG | 0.107
41 | TCGTGACA | 0.0412
42 | CCCCCGGG | -0.0719
43 | ACATCGGT | -0.092
44 | AAGAGCAA | -0.182

Row | Sequence | PBM E-score
45 | CCCATAGA | -0.304
46 | GTGCGCAC | 0.182
47 | CGCTAAAA | 0.191
48 | ACCGCCAG | -0.0533
49 | GAAAGTAA | -0.0194
50 | AAGTGACG | -0.0692
51 | CTTGACCC | -0.189
52 | GTTCTATA | 0.222
53 | AGATCAGG | -0.0459
54 | AGCGTCAC | -0.0093
55 | CTTCATGC | 0.0867
56 | AATGACAT | -0.108
57 | TAAAGTAA | -0.0971
58 | CATTGAAC | 0.185
59 | ACCTCAAG | -0.218
60 | CGCATATA | 0.145
61 | CCCCCCTA | -0.272
62 | GGCGCGTA | 0.077
63 | GATATTCC | 0.0383
64 | TATGCACA | -0.0515
65 | ACTTTACC | 0.0956
66 | TGGGATAA | -0.319

Row | Sequence | PBM E-score
67 | TCCTAGGA | -0.305
68 | GAGTCGAA | 0.111
69 | ATGATTCC | -0.0641
70 | CTTCAGGA | -0.0259
71 | AGTCAAAA | -0.159
72 | ACACTTCA | -0.121
73 | CCAGCATA | -0.219
74 | ATCGGTCC | 0.196
75 | CCTGATAG | -0.217
76 | GTCTCGGA | 0.242
77 | AGGCTTGC | -0.219
78 | AGAGCTCG | 0.148
79 | CCATGACC | -0.0476
80 | AGAGCGTG | 0.0343
81 | AGCCGCGC | -0.115
82 | ATAAGTAG | -0.139
83 | AGTGGGAC | -0.134
84 | ACACAGGT | -0.183
85 | CACAAGGG | -0.359
86 | AGGTGGCC | -0.127
